# Assay results as given in the supplement of paper PMC8728848.
# This is one part of the list.
# B1: rCnSL-proB (Clitocybe nebularis) (protein)
# chain: PTFSPIFALLAFLPFGTLASLLPQTQLVFRINPNLPGPNDVFVGYRGTNNVVGAIYERDGIKDTPMNNGADAELGPGSYITDDLFTAQIFASGSAGNNPGTTATVCKIYADGVQWRGAPKGYLPVLYFGNGQAAEQTRQTYLQGLDIPGTAIRFANLAKTPNQGPTAPRQMVVPSGGLQTLLKASCFPANHAALPQVLSYFNVRAALPPGWNIRTGPEFPNWTN
# Assays:
# Test in all cases: glycan array binding signal (z-score within array); higher = stronger binding
# Conditions in all cases: glycan notation: IUPAC condensed, linker removed
# [1] = biological target: Gal(b1-4)GlcNAc(b1-3)Gal(b1-4)GlcNAc(b1-2)[Gal(b1-4)GlcNAc(b1-3)Gal(b1-4)GlcNAc(b1-6)]Man(a1-6)[Gal(b1-4)GlcNAc(b1-3)Gal(b1-4)GlcNAc(b1-2)Man(a1-3)]Man(b1-4)GlcNAc(b1-4)GlcNAc
# In short: (§1)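 Arrays were curated from the Consortium for Functional Glycomics database, 3228 in total, and kept only where the protein sequence was available. Binding is expressed as a within-array Z-score. This score was averaged across arrays of the same protein sequence at different concentrations or buffers and across linkers, and negative values can be read as non-binding.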
# [2] = biological target: Gal(b1-4)GlcNAc(b1-3)Gal(b1-4)GlcNAc(b1-2)[Gal(b1-4)GlcNAc(b1-3)Gal(b1-4)GlcNAc(b1-6)]Man(a1-6)[Gal(b1-4)GlcNAc(b1-3)Gal(b1-4)GlcNAc(b1-2)Man(a1-3)]Man(b1-4)GlcNAc(b1-4)[Fuc(a1-6)]GlcNAc
# In short: as §1
# [3] = biological target: Gal(b1-4)GlcNAc(b1-3)Gal(b1-4)GlcNAc(b1-3)Gal(b1-4)GlcNAc
# In short: as §1
# [4] = biological target: Gal(b1-4)GlcNAc(b1-3)Gal(b1-4)GlcNAc(b1-3)Gal(b1-4)GlcNAc(b1-2)Man(a1-3)[Gal(b1-4)GlcNAc(b1-3)Gal(b1-4)GlcNAc(b1-3)Gal(b1-4)GlcNAc(b1-2)Man(a1-6)]Man(b1-4)GlcNAc(b1-4)GlcNAc
# In short: as §1
# [5] = biological target: Gal(b1-4)GlcNAc(b1-3)Gal(b1-4)GlcNAc(b1-3)Gal(b1-4)GlcNAc(b1-2)Man(a1-3)[Gal(b1-4)GlcNAc(b1-3)Gal(b1-4)GlcNAc(b1-3)Gal(b1-4)GlcNAc(b1-2)Man(a1-6)]Man(b1-4)GlcNAc(b1-4)[Fuc(a1-6)]GlcNAc
# In short: as §1
# [6] = biological target: Gal(b1-4)GlcNAc(b1-3)Gal(b1-4)GlcNAc(b1-3)Gal(b1-4)GlcNAc(b1-2)[Gal(b1-4)GlcNAc(b1-3)Gal(b1-4)GlcNAc(b1-3)Gal(b1-4)GlcNAc(b1-6)]Man(a1-6)[Gal(b1-4)GlcNAc(b1-3)Gal(b1-4)GlcNAc(b1-3)Gal(b1-4)GlcNAc(b1-2)Man(a1-3)]Man(b1-4)GlcNAc(b1-4)[Fuc(a1-6)]GlcNAc
# In short: as §1
# [7] = biological target: Gal(b1-4)GlcNAc(b1-3)Gal(b1-4)GlcNAc(b1-3)Gal(b1-4)GlcNAc(b1-3)Gal(b1-4)GlcNAc(b1-2)Man(a1-3)[Gal(b1-4)GlcNAc(b1-3)Gal(b1-4)GlcNAc(b1-3)Gal(b1-4)GlcNAc(b1-3)Gal(b1-4)GlcNAc(b1-2)Man(a1-6)]Man(b1-4)GlcNAc(b1-4)GlcNAc
# In short: as §1
# [8] = biological target: Gal(b1-4)GlcNAc(b1-3)Gal(b1-4)GlcNAc(b1-3)Gal(b1-4)GlcNAc(b1-3)Gal(b1-4)GlcNAc(b1-2)Man(a1-3)[Gal(b1-4)GlcNAc(b1-3)Gal(b1-4)GlcNAc(b1-3)Gal(b1-4)GlcNAc(b1-3)Gal(b1-4)GlcNAc(b1-2)Man(a1-6)]Man(b1-4)GlcNAc(b1-4)[Fuc(a1-6)]GlcNAc
# In short: as §1
# [9] = biological target: Gal(b1-4)GlcNAc(b1-3)Gal(b1-4)GlcNAc(b1-3)Gal(b1-4)GlcNAc(b1-3)Gal(b1-4)GlcNAc(b1-2)[Gal(b1-4)GlcNAc(b1-3)Gal(b1-4)GlcNAc(b1-3)Gal(b1-4)GlcNAc(b1-3)Gal(b1-4)GlcNAc(b1-6)]Man(a1-6)[Gal(b1-4)GlcNAc(b1-3)Gal(b1-4)GlcNAc(b1-3)Gal(b1-4)GlcNAc(b1-3)Gal(b1-4)GlcNAc(b1-2)Man(a1-3)]Man(b1-4)GlcNAc(b1-4)[Fuc(a1-6)]GlcNAc
# In short: as §1
# [10] = biological target: Gal(b1-4)GlcNAc(b1-3)Gal(b1-4)GlcNAc(b1-3)Gal(b1-4)GlcNAc(b1-3)Gal(b1-4)GlcNAc(b1-3)Gal(b1-4)GlcNAc(b1-2)Man(a1-3)[Gal(b1-4)GlcNAc(b1-3)Gal(b1-4)GlcNAc(b1-3)Gal(b1-4)GlcNAc(b1-3)Gal(b1-4)GlcNAc(b1-3)Gal(b1-4)GlcNAc(b1-2)Man(a1-6)]Man(b1-4)GlcNAc(b1-4)GlcNAc
# In short: as §1
# [11] = biological target: Gal(b1-4)GlcNAc(b1-3)Gal(b1-4)GlcNAc(b1-3)Gal(b1-4)GlcNAc(b1-3)Gal(b1-4)GlcNAc(b1-3)Gal(b1-4)GlcNAc(b1-2)Man(a1-3)[Gal(b1-4)GlcNAc(b1-3)Gal(b1-4)GlcNAc(b1-3)Gal(b1-4)GlcNAc(b1-3)Gal(b1-4)GlcNAc(b1-3)Gal(b1-4)GlcNAc(b1-2)Man(a1-6)]Man(b1-4)GlcNAc(b1-4)[Fuc(a1-6)]GlcNAc
# In short: as §1
# [12] = biological target: Gal(b1-4)GlcNAc(b1-3)Gal(b1-4)GlcNAc(b1-3)Gal(b1-4)GlcNAc(b1-3)Gal(b1-4)GlcNAc(b1-3)Gal(b1-4)GlcNAc(b1-2)[Gal(b1-4)GlcNAc(b1-3)Gal(b1-4)GlcNAc(b1-3)Gal(b1-4)GlcNAc(b1-3)Gal(b1-4)GlcNAc(b1-3)Gal(b1-4)GlcNAc(b1-6)]Man(a1-6)[Gal(b1-4)GlcNAc(b1-3)Gal(b1-4)GlcNAc(b1-3)Gal(b1-4)GlcNAc(b1-3)Gal(b1-4)GlcNAc(b1-3)Gal(b1-4)GlcNAc(b1-2)Man(a1-3)]Man(b1-4)GlcNAc(b1-4)[Fuc(a1-6)]GlcNAc
# In short: as §1
# [13] = biological target: Gal(b1-4)GlcNAc(b1-3)Gal(b1-4)GlcNAc(b1-3)Gal(b1-4)GlcNAc(b1-3)Gal(b1-4)GlcNAc(b1-3)Gal(b1-4)GlcNAc(b1-3)Gal(b1-4)GlcNAc(b1-2)Man(a1-3)[Gal(b1-4)GlcNAc(b1-3)Gal(b1-4)GlcNAc(b1-3)Gal(b1-4)GlcNAc(b1-3)Gal(b1-4)GlcNAc(b1-3)Gal(b1-4)GlcNAc(b1-3)Gal(b1-4)GlcNAc(b1-2)Man(a1-6)]Man(b1-4)GlcNAc(b1-4)GlcNAc
# In short: as §1
# [14] = biological target: Gal(b1-4)GlcNAc(b1-3)Gal(b1-4)GlcNAc(b1-3)GalNAc
# In short: as §1
# [15] = biological target: Gal(b1-4)GlcNAc(b1-3)Gal(b1-4)GlcNAc(b1-3)[Gal(b1-4)GlcNAc(b1-3)Gal(b1-4)GlcNAc(b1-6)]GalNAc
# In short: as §1
# [16] = biological target: Gal(b1-4)GlcNAc(b1-3)Gal(b1-4)GlcNAc(b1-6)[Gal(b1-3)]GalNAc
# In short: as §1
# [17] = biological target: Gal(b1-4)GlcNAc(b1-3)Gal(b1-4)[Fuc(a1-3)]GlcNAc(b1-3)Gal(b1-4)[Fuc(a1-3)]GlcNAc
# In short: as §1
# [18] = biological target: Gal(b1-4)GlcNAc(b1-3)GalNAc
# In short: as §1
# [19] = biological target: Gal(b1-4)GlcNAc(b1-3)[Fuc(a1-3)GlcNAc(b1-6)]Gal(b1-4)Glc
# In short: as §1
# [20] = biological target: Gal(b1-4)GlcNAc(b1-3)[Gal(b1-4)GlcNAc(b1-6)]Gal(b1-4)GlcNAc
# In short: as §1
# [21] = biological target: Gal(b1-4)GlcNAc(b1-3)[GlcNAc(b1-6)]Gal(b1-4)GlcNAc
# In short: as §1
# [22] = biological target: Gal(b1-4)GlcNAc(b1-6)Gal(b1-4)GlcNAc
# In short: as §1
# [23] = biological target: Gal(b1-4)GlcNAc(b1-6)GalNAc
# In short: as §1
# [24] = biological target: Gal(b1-4)GlcNAc(b1-6)[Gal(b1-3)]GalNAc
# In short: as §1
# [25] = biological target: Gal(b1-4)GlcNAc(b1-6)[Gal(b1-4)GlcNAc(b1-3)]GalNAc
# In short: as §1
# Gal(b1-4)GlcNAc6P = biological target: Gal(b1-4)GlcNAc6P
# In short: as §1
# Gal(b1-6)Gal = biological target: Gal(b1-6)Gal
# In short: as §1
# Gal3S(b1-3)GalNAc = biological target: Gal3S(b1-3)GalNAc
# In short: as §1
# Gal3S(b1-3)GlcNAc = biological target: Gal3S(b1-3)GlcNAc
# In short: as §1
# [26] = biological target: Gal3S(b1-3)[Fuc(a1-4)]GlcNAc
# In short: as §1
# Gal3S(b1-4)Glc = biological target: Gal3S(b1-4)Glc
# In short: as §1
# Gal3S(b1-4)Glc6S = biological target: Gal3S(b1-4)Glc6S
# In short: as §1
# Gal3S(b1-4)GlcNAc = biological target: Gal3S(b1-4)GlcNAc
# In short: as §1
# [27] = biological target: Gal3S(b1-4)[Fuc(a1-3)]Glc6S
# In short: as §1
# [28] = biological target: Gal3S(b1-4)[Fuc(a1-3)]GlcNAc
# In short: as §1
# [29] = biological target: Gal3S(b1-4)[Fuc(a1-3)]GlcNAc6S
# In short: as §1
# Gal3S4S(b1-4)GlcNAc = biological target: Gal3S4S(b1-4)GlcNAc
# In short: as §1
# Gal3S6S(b1-4)GlcNAc = biological target: Gal3S6S(b1-4)GlcNAc
# In short: as §1
# Gal3S6S(b1-4)GlcNAc6S = biological target: Gal3S6S(b1-4)GlcNAc6S
# In short: as §1
# Gal4S(b1-4)GlcNAc = biological target: Gal4S(b1-4)GlcNAc
# In short: as §1
# Gal4S6S(b1-4)GlcNAc = biological target: Gal4S6S(b1-4)GlcNAc
# In short: as §1
# Gal6P(b1-4)GlcNAc = biological target: Gal6P(b1-4)GlcNAc
# In short: as §1
# Gal6S(b1-3)GlcNAc = biological target: Gal6S(b1-3)GlcNAc
# In short: as §1
# Gal6S(b1-3)GlcNAc6S = biological target: Gal6S(b1-3)GlcNAc6S
# In short: as §1
# Gal6S(b1-4)Glc = biological target: Gal6S(b1-4)Glc
# In short: as §1
binder,measurement,setting,value
B1,glycan array binding signal (z-score),[1],2.11
same,glycan array binding signal (z-score),[2],2.75
same,glycan array binding signal (z-score),[3],0.2
same,glycan array binding signal (z-score),[4],4.18
same,glycan array binding signal (z-score),[5],1.76
same,glycan array binding signal (z-score),[6],2.8
same,glycan array binding signal (z-score),[7],0.567
same,glycan array binding signal (z-score),[8],2.28
same,glycan array binding signal (z-score),[9],1.91
same,glycan array binding signal (z-score),[10],0.922
same,glycan array binding signal (z-score),[11],0.375
same,glycan array binding signal (z-score),[12],1.24
same,glycan array binding signal (z-score),[13],3.08
same,glycan array binding signal (z-score),[14],2.15
same,glycan array binding signal (z-score),[15],4.08
same,glycan array binding signal (z-score),[16],0.225
same,glycan array binding signal (z-score),[17],0.088
same,glycan array binding signal (z-score),[18],0.187
same,glycan array binding signal (z-score),[19],0.474
same,glycan array binding signal (z-score),[20],-0.283
same,glycan array binding signal (z-score),[21],-0.395
same,glycan array binding signal (z-score),[22],-0.308
same,glycan array binding signal (z-score),[23],0.179
same,glycan array binding signal (z-score),[24],-0.464
same,glycan array binding signal (z-score),[25],-0.173
same,glycan array binding signal (z-score),Gal(b1-4)GlcNAc6P,-3.32
same,glycan array binding signal (z-score),Gal(b1-6)Gal,-0.226
same,glycan array binding signal (z-score),Gal3S(b1-3)GalNAc,-0.249
same,glycan array binding signal (z-score),Gal3S(b1-3)GlcNAc,-0.565
same,glycan array binding signal (z-score),[26],-0.319
same,glycan array binding signal (z-score),Gal3S(b1-4)Glc,-0.12
same,glycan array binding signal (z-score),Gal3S(b1-4)Glc6S,-0.37
same,glycan array binding signal (z-score),Gal3S(b1-4)GlcNAc,-0.913
same,glycan array binding signal (z-score),[27],0.549
same,glycan array binding signal (z-score),[28],0.039
same,glycan array binding signal (z-score),[29],-0.332
same,glycan array binding signal (z-score),Gal3S4S(b1-4)GlcNAc,-0.739
same,glycan array binding signal (z-score),Gal3S6S(b1-4)GlcNAc,-0.09
same,glycan array binding signal (z-score),Gal3S6S(b1-4)GlcNAc6S,-0.244
same,glycan array binding signal (z-score),Gal4S(b1-4)GlcNAc,-0.447
same,glycan array binding signal (z-score),Gal4S6S(b1-4)GlcNAc,-0.412
same,glycan array binding signal (z-score),Gal6P(b1-4)GlcNAc,-0.143
same,glycan array binding signal (z-score),Gal6S(b1-3)GlcNAc,-0.094
same,glycan array binding signal (z-score),Gal6S(b1-3)GlcNAc6S,-0.486
same,glycan array binding signal (z-score),Gal6S(b1-4)Glc,-0.537
